Source: the supplement of paper PMC8728848
This is one part of the list.

Key:
Experiment in all cases: glycan array binding signal (z-score within array); higher = stronger binding
Details in all cases: glycan notation: IUPAC condensed, linker removed
Fuc(a1-3)GlcNAc = target: Fuc(a1-3)GlcNAc
Method in brief: (§1)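 Columns mapping to the same glycan were averaged after glycan names were converted to IUPAC-condensed notation. The data come from 3228 arrays in the Consortium for Functional Glycomics database, limited to those with an available protein sequence. Binding is reported as a within-array Z-score averaged across arrays of one protein sequence and across linkers.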

[1] = target: Fuc(a1-3)[Gal(b1-4)]Glc6S
Method in brief: as §1

[2] = target: Fuc(a1-3)[Gal(b1-4)]GlcNAc
Method in brief: as §1

[3] = target: Fuc(a1-3)[Gal(b1-4)]GlcNAc(b1-2)Man
Method in brief: as §1

[4] = target: Fuc(a1-3)[Gal(b1-4)]GlcNAc(b1-2)Man(a1-3)[Fuc(a1-3)[Gal(b1-4)]GlcNAc(b1-2)Man(a1-6)]Man(b1-4)GlcNAc(b1-4)GlcNAc
Method in brief: as §1

[5] = target: Fuc(a1-3)[Gal(b1-4)]GlcNAc(b1-2)Man(a1-3)[Fuc(a1-3)[Gal(b1-4)]GlcNAc(b1-2)Man(a1-6)]Man(b1-4)GlcNAc(b1-4)[Fuc(a1-6)]GlcNAc
Method in brief: as §1

[6] = target: Fuc(a1-3)[Gal(b1-4)]GlcNAc(b1-3)Gal(b1-3)[Fuc(a1-4)]GlcNAc
Method in brief: as §1

[7] = target: Fuc(a1-3)[Gal(b1-4)]GlcNAc(b1-3)Gal(b1-4)[Fuc(a1-3)]GlcNAc
Method in brief: as §1

[8] = target: Fuc(a1-3)[Gal(b1-4)]GlcNAc(b1-3)Gal(b1-4)[Fuc(a1-3)]GlcNAc(b1-3)Gal(b1-4)[Fuc(a1-3)]GlcNAc
Method in brief: as §1

[9] = target: Fuc(a1-3)[Gal(b1-4)]GlcNAc(b1-3)GalNAc
Method in brief: as §1

[10] = target: Fuc(a1-3)[Gal(b1-4)]GlcNAc(b1-6)GalNAc
Method in brief: as §1

[11] = target: Fuc(a1-3)[Gal(b1-4)]GlcNAc(b1-6)[Gal(b1-3)GlcNAc(b1-3)]Gal(b1-4)Glc
Method in brief: as §1

[12] = target: Fuc(a1-3)[Gal(b1-4)]GlcNAc6S
Method in brief: as §1

[13] = target: Fuc(a1-3)[Gal3S(b1-4)]Glc
Method in brief: as §1

[14] = target: Fuc(a1-3)[Gal3S(b1-4)]GlcNAc
Method in brief: as §1

[15] = target: Fuc(a1-3)[Gal3S(b1-4)]GlcNAc6S
Method in brief: as §1

[16] = target: Fuc(a1-3)[GalNAc(b1-4)]GlcNAc
Method in brief: as §1

[17] = target: Fuc(a1-3)[GalNAc(b1-4)]GlcNAc6S
Method in brief: as §1

Fuc(a1-4)GlcNAc = target: Fuc(a1-4)GlcNAc
Method in brief: as §1

Fuc(b1-3)GlcNAc = target: Fuc(b1-3)GlcNAc
Method in brief: as §1

Gal(a1-2)Gal = target: Gal(a1-2)Gal
Method in brief: as §1

Gal(a1-3)Gal = target: Gal(a1-3)Gal
Method in brief: as §1

Gal(a1-3)Gal(b1-3)GlcNAc = target: Gal(a1-3)Gal(b1-3)GlcNAc
Method in brief: as §1

[18] = target: Gal(a1-3)Gal(b1-3)GlcNAc(b1-2)Man
Method in brief: as §1

[19] = target: Gal(a1-3)Gal(b1-3)GlcNAc(b1-2)Man(a1-3)[Gal(a1-3)Gal(b1-3)GlcNAc(b1-2)Man(a1-6)]Man(b1-4)GlcNAc(b1-4)GlcNAc
Method in brief: as §1

[20] = target: Gal(a1-3)Gal(b1-3)GlcNAc(b1-3)GalNAc
Method in brief: as §1

[21] = target: Gal(a1-3)Gal(b1-3)GlcNAc(b1-6)GalNAc
Method in brief: as §1

[22] = target: Gal(a1-3)Gal(b1-3)[Fuc(a1-4)]GlcNAc(b1-2)Man(a1-3)[Gal(a1-3)Gal(b1-3)[Fuc(a1-4)]GlcNAc(b1-2)Man(a1-6)]Man(b1-4)GlcNAc(b1-4)GlcNAc
Method in brief: as §1

Gal(a1-3)Gal(b1-4)Glc = target: Gal(a1-3)Gal(b1-4)Glc
Method in brief: as §1

Gal(a1-3)Gal(b1-4)GlcNAc = target: Gal(a1-3)Gal(b1-4)GlcNAc
Method in brief: as §1

[23] = target: Gal(a1-3)Gal(b1-4)GlcNAc(b1-2)Man
Method in brief: as §1

[24] = target: Gal(a1-3)Gal(b1-4)GlcNAc(b1-2)Man(a1-3)[Gal(a1-3)Gal(b1-4)GlcNAc(b1-2)Man(a1-6)]Man(b1-4)GlcNAc(b1-4)GlcNAc
Method in brief: as §1

[25] = target: Gal(a1-3)Gal(b1-4)GlcNAc(b1-3)GalNAc
Method in brief: as §1

[26] = target: Gal(a1-3)Gal(b1-4)GlcNAc(b1-6)GalNAc
Method in brief: as §1

[27] = target: Gal(a1-3)Gal(b1-4)[Fuc(a1-3)]GlcNAc
Method in brief: as §1

[28] = target: Gal(a1-3)Gal(b1-4)[Fuc(a1-3)]GlcNAc(b1-2)Man(a1-3)[Gal(a1-3)Gal(b1-4)[Fuc(a1-3)]GlcNAc(b1-2)Man(a1-6)]Man(b1-4)GlcNAc(b1-4)GlcNAc
Method in brief: as §1

Gal(a1-3)GalNAc = target: Gal(a1-3)GalNAc
Method in brief: as §1

B1: SP16665A-bot-344-23-344 (Bacteroides ovatus) (protein)
chain: SDNEFPDFDYQTVYFANQYGLRTIELGESEFVDNTLDNQHKMVIKAAWGGGYTNRNNVVINFKVDESLCDNLYFKDTDQPLVPMPASYYTLASDRIAIPKGQIMAGVEVQLTDDFFADEKSISENYVIPLLMTNVQGADSILQGKPVVENPVLTNAGDWSILPQNFVLYAVKYVNPWHGEYLRRGIDHATVAGTSKDIIRHEQFVENDEVVNISTKSMKDNLLTLKTKDESGKDISYTVRLSFAEDGSCTVHSGSQNVVVSGSGKFVSKGEKNSLGGKDRNAIYLDYTVNLTDNNIQLATKDTLVLRTRNVYGGKSLEVVRK
glycan array binding signal (z-score) (Fuc(a1-3)GlcNAc): -0.063
glycan array binding signal (z-score) [1]: -0.088
glycan array binding signal (z-score) [2]: -0.428
glycan array binding signal (z-score) [3]: 0.187
glycan array binding signal (z-score) [4]: -0.26
glycan array binding signal (z-score) [5]: -0.098
glycan array binding signal (z-score) [6]: -0.084
glycan array binding signal (z-score) [7]: -0.237
glycan array binding signal (z-score) [8]: 0
glycan array binding signal (z-score) [9]: -0.329
glycan array binding signal (z-score) [10]: -0.05
glycan array binding signal (z-score) [11]: -0.388
glycan array binding signal (z-score) [12]: 0.096
glycan array binding signal (z-score) [13]: -0.714
glycan array binding signal (z-score) [14]: 0.719
glycan array binding signal (z-score) [15]: -0.193
glycan array binding signal (z-score) [16]: 0.14
glycan array binding signal (z-score) [17]: -0.483
glycan array binding signal (z-score) (Fuc(a1-4)GlcNAc): 19.1
glycan array binding signal (z-score) (Fuc(b1-3)GlcNAc): 0.447
glycan array binding signal (z-score) (Gal(a1-2)Gal): -0.091
glycan array binding signal (z-score) (Gal(a1-3)Gal): 0.236
glycan array binding signal (z-score) (Gal(a1-3)Gal(b1-3)GlcNAc): 0.959
glycan array binding signal (z-score) [18]: -0.138
glycan array binding signal (z-score) [19]: 0.299
glycan array binding signal (z-score) [20]: -0.457
glycan array binding signal (z-score) [21]: -0.101
glycan array binding signal (z-score) [22]: 0.394
glycan array binding signal (z-score) (Gal(a1-3)Gal(b1-4)Glc): -0.381
glycan array binding signal (z-score) (Gal(a1-3)Gal(b1-4)GlcNAc): 0.23
glycan array binding signal (z-score) [23]: -0.414
glycan array binding signal (z-score) [24]: 0.709
glycan array binding signal (z-score) [25]: -0.732
glycan array binding signal (z-score) [26]: 0.055
glycan array binding signal (z-score) [27]: -0.425
glycan array binding signal (z-score) [28]: -0.56
glycan array binding signal (z-score) (Gal(a1-3)GalNAc): -0.214
